Results as given in PubChem BioAssay AID1347428 (National Center for Advancing Translational Sciences (NCATS), 2020).
Screen size: about 91,000 compounds; about 290 (0.32%) were called active. This list was built around the results that the source calls inconclusive (neither active nor inactive); the mix of calls is not that of the screen. Calls come from the whole dose curve; as a rule, active = well fitted inhibition curve with a large enough effect; inconclusive = small, poorly fitted or top-dose-only effect; inactive = no such curve, though single readings can be large or run the other way. A potency beside an inconclusive call is a rough fit, not a confirmed value.

target: Single-stranded DNA cytosine deaminase (Homo sapiens) (UniProt Q9GZX7); assay: Primary qHTS assay for inhibitors of Activation Induced Cytidine Deaminase (AID): AID signal; conditions: AID deamination FRET fluorescence, UDG-coupled, 4 h; series mostly up to 115 µM; note: nearly all actives have a fitted effect of over 25% in size
UniProt Q9GZX7, sequence (Q9GZX7 whole entry, looked up): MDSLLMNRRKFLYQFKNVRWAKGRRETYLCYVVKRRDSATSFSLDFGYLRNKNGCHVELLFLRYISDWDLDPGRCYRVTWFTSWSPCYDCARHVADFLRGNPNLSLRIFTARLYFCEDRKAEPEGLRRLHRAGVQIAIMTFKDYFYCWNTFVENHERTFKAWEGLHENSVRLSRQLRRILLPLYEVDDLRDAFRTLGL
Potency is the fitted concentration of half-maximal effect; tags give direction and shape of the fitted curve.

Q: With N#CC(/C(=N/S(=O)(=O)c1ccccc1)c1ccccc1)c1nc2ccccc2s1 (stereo not drawn) as the compound, how does the Potency read?
A: inconclusive: 56.2 µM [inhibitor, partial curve, poor fit]

Q: For CCc1ccc(NC(=O)CSc2nc(=O)n(Cc3ccco3)c3c2CCC3)cc1, which Potency is on record?
A: inconclusive: 39.8 µM [inhibitor, full curve, poor fit]

Q: For Cc1nc2nc(NC(=O)c3ccc(Cl)cc3)[nH]n2c(=O)c1Cc1ccccc1, which Potency is on record?
A: inconclusive: 89.1 µM [inhibitor, partial curve, poor fit]

Q: CC(C)CC(=O)Nc1c(C(=O)N2CCN(c3ccccc3F)CC2)oc2ccccc12 was tested. Which Potency did it give?
A: inconclusive: 100 µM [inhibitor, single point]

Q: With C=CCSc1nc(-c2cccs2)cc(C(F)(F)F)c1C#N as the compound, how does the Potency read?
A: inactive

Q: Which Potency does the source give for CC(C(=O)Nc1ccccc1C(F)(F)F)n1nc(-c2ccccc2)c2c(c1=O)CCCC2 (stereo not drawn) here?
A: inconclusive: 28.2 µM [inhibitor, partial curve]

Q: C=CCNC(=O)NC(=O)CNc1cc(C(F)(F)F)cc(C(F)(F)F)c1 was tested. Which Potency did it give?
A: inactive

Q: Which Potency does the source give for Cc1nc2ccccc2n1CCc1nc2c3ccccc3nc(SCC(=O)Nc3ccc(C(C)C)cc3)n2n1 here?
A: inconclusive: 50.1 µM [inhibitor, partial curve, poor fit]

Q: Which Potency does the source give for COc1ccc(Br)cc1CNC(=O)c1ccc2c(c1)nc1n2CCCCC1 here?
A: inconclusive: 35.5 µM [inhibitor, partial curve, poor fit]

Q: O=C(Nc1cccc(S(=O)(=O)N2CCCC2)c1)c1ccccc1Oc1ccccc1 was tested. Which Potency did it give?
A: inactive

Q: Which Potency does the source give for CCOC(=O)c1c(C)oc2nc(C)nc(NC(C)c3ccccc3)c12 (stereo not drawn) here?
A: active: 79.4 µM

Q: Which Potency does the source give for CC1=C(C(=O)Nc2cccnc2)C(c2ccccc2)n2nc(SCc3ccccc3F)nc2N1 (stereo not drawn) here?
A: inconclusive: 7.08 µM [inhibitor, full curve, poor fit]

Q: For CNC(=S)NNC(=O)c1cc(F)cc(F)c1, which Potency is on record?
A: inactive

Q: How did the Potency turn out when Cc1ncc(CO)c2c1Oc1nc(-c3ccccc3)nc(SCC(=O)Nc3cccc(C(F)(F)F)c3)c1C2 was run?
A: inconclusive: 70.8 µM [inhibitor, single point]

Q: How did the Potency turn out when CCCCn1c(-c2ccc(C)cc2)c(C)n2c3c(=O)n(C)c(=O)n(C)c3nc12 was run?
A: inconclusive: 79.4 µM [inhibitor, partial curve, poor fit]

Q: How did the Potency turn out when Cc1ccc(OCCCCn2c(CCNC(=O)C(C)(C)C)nc3ccccc32)cc1 was run?
A: inconclusive: 50.1 µM [inhibitor, partial curve, poor fit]

Q: C(=N\Nc1cccc2cccnc12)/c1c[nH]c2ccccc12 was tested. Which Potency did it give?
A: inactive

Q: How did the Potency turn out when Cc1ccccc1-c1noc(CSc2nnc(-c3ccncc3)n2-c2ccc(F)cc2)n1 was run?
A: inactive
